Experimental data taken from the supplement of paper PMC10126150.
Values marked as one replicate rest on one cluster of the flow cell; about a third of the high ones do not repeat.

The sequences below were run on ATP (assay: switch fluorescence ratio, 500 uM ATP over buffer (Cy3 cluster intensity, sum of 5 cycles each) (fold (ratio)); higher = stronger signal-on switching upon ATP binding; sequences stand for … in TCGTCGGCAGCGTCAGATGTGTATAAGAGACAGTTTTTTTTTTTTTTTTTTTTTTTTT…TC). Conditions: aptamer strand: ATP DNA aptamer (quencher-CACCTGGGGGAGTATTGCGGAGGAAGG + anchor), 100 nM annealed; ATP concentration: 500 uM; one replicate.
Outline: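 Exposure to 500 uM ATP lasted 15 min at 22 °C before imaging, and a selection-buffer image was taken beforehand, for Cy3-labelled switching-strand clusters on a modified Illumina MiSeq flow-cell annealed to 100 nM quencher-labelled ATP aptamer. Five buffer/ATP cycles were run with NaOH stripping and re-annealing between them. The fluorescence ratio per cluster is summed target-cycle over summed buffer-cycle Cy3 intensity, averaged per switch-domain sequence. Clusters outside 100-1000 RFU were excluded.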
ATCTTGTATG was tested, and the switch fluorescence ratio was 0.956.
Work on ATCTTGTGCG yielded a switch fluorescence ratio of 0.988.
Sequence ATCTTGTGTG has a switch fluorescence ratio of 0.961.
Sequence ATCTTTACTT has a switch fluorescence ratio of 0.961.
Work on ATCTTTATCT yielded a switch fluorescence ratio of 1.05.
For ATGAAAAAGC, the switch fluorescence ratio was 1.08.
Work on ATGAACCCGC yielded a switch fluorescence ratio of 1.01.
With ATGAACGCGC the switch fluorescence ratio was 1.11.
Sequence ATGAACGGA has a switch fluorescence ratio of 0.947.
With ATGAAGAGAA the switch fluorescence ratio was 1.03.
Work on ATGAAGGAC yielded a switch fluorescence ratio of 1.06.
ATGAATACCA gave a switch fluorescence ratio of 1.01.
For ATGAATCAAG, the switch fluorescence ratio was 0.998.
Work on ATGAATGTT yielded a switch fluorescence ratio of 0.939.
For ATGAATTAGG, the switch fluorescence ratio was 0.966.
For ATGAATTCTA, the switch fluorescence ratio was 0.971.
In the case of ATGAATTGAC, the switch fluorescence ratio is reported as 1.06.
For ATGAATTTCA, the switch fluorescence ratio was 0.96.
ATGACCTAAA showed a switch fluorescence ratio of 1.
Sequence ATGACGATTT has a switch fluorescence ratio of 0.962.
In the case of ATGACGGGGA, the switch fluorescence ratio is reported as 1.
ATGACTAAAA gave a switch fluorescence ratio of 1.02.
ATGACTAT showed a switch fluorescence ratio of 0.947.
ATGACTCTTG showed a switch fluorescence ratio of 1.04.
ATGACTTGGA was tested, and the switch fluorescence ratio was 1.03.
In the case of ATGAGACCTT, the switch fluorescence ratio is reported as 1.22.
For ATGAGAGAGT, the switch fluorescence ratio was 1.05.
Work on ATGAGAGTCT yielded a switch fluorescence ratio of 1.
Work on ATGAGATAAA yielded a switch fluorescence ratio of 0.988.
In the case of ATGAGCCTGT, the switch fluorescence ratio is reported as 0.968.
ATGAGCGAGT was tested, and the switch fluorescence ratio was 0.956.
ATGAGCGGTT gave a switch fluorescence ratio of 1.01.
Work on ATGAGGCTG yielded a switch fluorescence ratio of 0.97.
For ATGAGTTCAT, the switch fluorescence ratio was 1.05.
With ATGAGTTGG the switch fluorescence ratio was 0.992.
ATGATAGATC was tested, and the switch fluorescence ratio was 0.968.
ATGATCAGTA was tested, and the switch fluorescence ratio was 0.971.
Work on ATGATCGGTC yielded a switch fluorescence ratio of 0.994.
Work on ATGATCTTGG yielded a switch fluorescence ratio of 1.02.
ATGATGACTT gave a switch fluorescence ratio of 0.949.
With ATGATGCAGC the switch fluorescence ratio was 1.04.
ATGATGGAAA was tested, and the switch fluorescence ratio was 1.03.
Work on ATGATGGCAT yielded a switch fluorescence ratio of 1.02.
Sequence ATGATGGGTT has a switch fluorescence ratio of 0.988.
ATGATGGTTG gave a switch fluorescence ratio of 0.992.
ATGATGTAAA was tested, and the switch fluorescence ratio was 0.994.
ATGATTGCTT showed a switch fluorescence ratio of 1.03.
Sequence ATGATTGTTT has a switch fluorescence ratio of 1.02.
For ATGATTTGGA, the switch fluorescence ratio was 1.03.
With ATGCAATCTG the switch fluorescence ratio was 1.14.
Sequence ATGCACATAC has a switch fluorescence ratio of 4.08.
With ATGCAGCGCT the switch fluorescence ratio was 1.01.
ATGCAGTCAA showed a switch fluorescence ratio of 1.03.
ATGCATGGCT showed a switch fluorescence ratio of 1.04.
ATGCATGTTA showed a switch fluorescence ratio of 1.01.
For ATGCATTAAC, the switch fluorescence ratio was 1.12.
ATGCCAACCC showed a switch fluorescence ratio of 1.06.
For ATGCCCCCCG, the switch fluorescence ratio was 1.08.
Sequence ATGCCTACT has a switch fluorescence ratio of 1.02.
ATGCCTATCG showed a switch fluorescence ratio of 0.958.
ATGCCTCGTC showed a switch fluorescence ratio of 1.05.
Sequence ATGCCTCTGA has a switch fluorescence ratio of 1.01.
Sequence ATGCCTGTAC has a switch fluorescence ratio of 1.08.
ATGCCTTAAA showed a switch fluorescence ratio of 0.931.
With ATGCGAATAA the switch fluorescence ratio was 0.983.
ATGCGATAAA showed a switch fluorescence ratio of 0.998.
Work on ATGCGCAACT yielded a switch fluorescence ratio of 1.17.
ATGCGCCTAA showed a switch fluorescence ratio of 0.984.
Work on ATGCGGATAA yielded a switch fluorescence ratio of 0.997.
ATGCGGTATC was tested, and the switch fluorescence ratio was 0.986.
Work on ATGCGTGTGG yielded a switch fluorescence ratio of 0.999.
In the case of ATGCTAAAGC, the switch fluorescence ratio is reported as 0.992.
For ATGCTAGAGC, the switch fluorescence ratio was 1.02.
Sequence ATGCTATGGG has a switch fluorescence ratio of 0.986.
ATGCTCAATC showed a switch fluorescence ratio of 1.07.
For ATGCTGCGGT, the switch fluorescence ratio was 0.955.
For ATGCTGGACC, the switch fluorescence ratio was 0.977.
ATGCTTATAG showed a switch fluorescence ratio of 0.971.
For ATGCTTGATA, the switch fluorescence ratio was 0.988.
ATGCTTTCCG showed a switch fluorescence ratio of 0.963.
ATGGAAATGT gave a switch fluorescence ratio of 0.987.
ATGGAATCGG was tested, and the switch fluorescence ratio was 1.
Sequence ATGGACGCGA has a switch fluorescence ratio of 1.35.
Work on ATGGACTACG yielded a switch fluorescence ratio of 1.
ATGGACTTA was tested, and the switch fluorescence ratio was 1.11.
ATGGAGATGG showed a switch fluorescence ratio of 0.984.
ATGGAGGCA was tested, and the switch fluorescence ratio was 1.03.
In the case of ATGGATAATC, the switch fluorescence ratio is reported as 0.985.
ATGGATTCCA was tested, and the switch fluorescence ratio was 0.989.
In the case of ATGGCAATCC, the switch fluorescence ratio is reported as 2.07.
With ATGGCATTCT the switch fluorescence ratio was 0.957.
ATGGCCGATT was tested, and the switch fluorescence ratio was 0.975.
ATGGCGAATG was tested, and the switch fluorescence ratio was 0.982.
Sequence ATGGCGATAT has a switch fluorescence ratio of 1.03.
Work on ATGGCGGACC yielded a switch fluorescence ratio of 0.983.
ATGGCGGAG gave a switch fluorescence ratio of 0.988.
In the case of ATGGCGGGAT, the switch fluorescence ratio is reported as 0.987.
Sequence ATGGCGGTGG has a switch fluorescence ratio of 1.01.
ATGGCTAA was tested, and the switch fluorescence ratio was 0.954.
Work on ATGGCTCAGT yielded a switch fluorescence ratio of 0.972.
